This note sets out measurements from the supplement of paper PMC3334620.

Whole data set: some 33,000 sequences, median “E-score (-0.5 to 0.5)” near -0.035, cut for the highest 2% near 0.34. Some of the results follow.

This test deals with T1, Mot3 (UniProt P54785).
T1 sequence: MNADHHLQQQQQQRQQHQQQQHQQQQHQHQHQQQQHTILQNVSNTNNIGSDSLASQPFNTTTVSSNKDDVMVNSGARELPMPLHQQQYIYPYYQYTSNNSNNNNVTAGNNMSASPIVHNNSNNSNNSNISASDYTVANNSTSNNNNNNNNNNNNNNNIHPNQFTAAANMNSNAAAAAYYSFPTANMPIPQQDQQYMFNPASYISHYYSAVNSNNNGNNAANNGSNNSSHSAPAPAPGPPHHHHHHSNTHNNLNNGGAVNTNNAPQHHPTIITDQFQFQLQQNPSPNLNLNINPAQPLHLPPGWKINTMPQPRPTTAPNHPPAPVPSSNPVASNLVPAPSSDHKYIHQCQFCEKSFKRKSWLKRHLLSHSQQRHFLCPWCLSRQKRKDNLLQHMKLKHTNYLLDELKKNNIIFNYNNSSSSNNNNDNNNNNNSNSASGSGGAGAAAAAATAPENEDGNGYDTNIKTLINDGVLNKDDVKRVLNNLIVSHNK
Briefly: PBM E-score (8-mer binding enrichment) (E-score (-0.5 to 0.5)); higher = stronger / more preferred TF binding; most listed sequences are background and not binding sites. The conditions noted are these: protein concentration: 200 nM; construct: GST-full length. A digest of the protocol: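 E-scores (a modified Wilcoxon-Mann-Whitney statistic) were assigned by the Universal PBM Analysis Suite to every ungapped eight-base word pooled with its reverse complement. The input came from universal all-10-mer Agilent arrays made double-stranded by primer extension and probed with GST-tagged yeast transcription factors at about 100-200 nM. Fluorescent anti-GST detected bound protein, and masliner normalised the scans.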
Regarding ACCTGAGC, the “PBM E-score” value was determined as 0.0803.

As for ACTCAGAT, the “PBM E-score” value was -0.121.

On to ACGATTAA, for which the “PBM E-score” value amounted to 0.197.

With ACGGCCTA, the “PBM E-score” value is -0.0205.

Consider AAAGGTGG, for which the “PBM E-score” value was found to be 0.0385.

As to TACCTGAA, the “PBM E-score” value is 0.315.

ACAGACCC: the “PBM E-score” value was 0.0371.

AGTGGATG: the “PBM E-score” value is -0.08.

For AACAAGAA, the “PBM E-score” value amounted to 0.229.

For the sequence AACATTCG, the “PBM E-score” value came to 0.0493.

As for AATTACCG, the “PBM E-score” value was determined as 0.196.

Regarding GTTCAGAA, the “PBM E-score” value turned out to be 0.11.

Take AAAGCCCG: the “PBM E-score” value was -0.151.

CTCCCTTC: the “PBM E-score” value was -0.286.

For the sequence CTCTTGAC, the “PBM E-score” value is -0.00996.

Take GACGCGAC: the “PBM E-score” value is -0.0857.

Take GTTTTGTA: the “PBM E-score” value is 0.199.

On to AGCAAGAT, for which the “PBM E-score” value was -0.0696.

In the case of AACGGGTC, the “PBM E-score” value was -0.271.

For GGCTGACA, the “PBM E-score” value is -0.119.

For CATTCGGC, the “PBM E-score” value was -0.304.

TCTATTCA: the “PBM E-score” value is 0.165.

AGCGGTCA: the “PBM E-score” value was -0.213.

Regarding GCGAATCC, the “PBM E-score” value was -0.129.

As for ACCCGACT, the “PBM E-score” value turned out to be 0.131.

For AAGCCGAG, the “PBM E-score” value is -0.27.

In the case of CGTACATA, the “PBM E-score” value is 0.305.

Regarding ACGAGAGG, the “PBM E-score” value was -0.152.

Take AATACAGA: the “PBM E-score” value is 0.0732.

In the case of TACTTCTA, the “PBM E-score” value was found to be 0.165.

In the case of ACACTCTG, the “PBM E-score” value was 0.0611.

Consider ATAGCGCG, for which the “PBM E-score” value worked out at 0.0578.

Consider ACTCTGCG, for which the “PBM E-score” value is -0.00663.

As for CCGCCACC, the “PBM E-score” value was -0.179.

As for GAACTATC, the “PBM E-score” value was -0.164.

In the case of CAGAACCG, the “PBM E-score” value was 0.101.

As to CTAATCCA, the “PBM E-score” value was -0.186.

As to CAACAAAC, the “PBM E-score” value is 0.155.

For the sequence GTGCACAC, the “PBM E-score” value is -0.162.

For TAGCCCAA, the “PBM E-score” value was -0.212.

For the sequence ATAGTACC, the “PBM E-score” value is 0.075.

For GCATAAGA, the “PBM E-score” value was 0.0317.

With CTCTGGAC, the “PBM E-score” value was -0.0406.

For the sequence CTCGGCTA, the “PBM E-score” value was -0.0141.

For the sequence AGACTCGA, the “PBM E-score” value is -0.309.

As for ATTTGGCG, the “PBM E-score” value is -0.121.

On to GGTACCAC, for which the “PBM E-score” value is -0.0231.

Turning to AGCACTGC, the “PBM E-score” value is -0.204.

As for AAGTCAGC, the “PBM E-score” value is -0.0785.

Turning to ACTGTCCT, the “PBM E-score” value is -0.176.

Take AATTTCGG: the “PBM E-score” value was -0.103.

As for AAATTTTG, the “PBM E-score” value came to 0.0397.

On to AATACCAC, for which the “PBM E-score” value is -0.0411.

On to ATTGCCAG, for which the “PBM E-score” value is -0.156.

On to GCTTCTCC, for which the “PBM E-score” value was -0.197.

CGTCAATA: the “PBM E-score” value is -0.0979.

With ATGCGGAC, the “PBM E-score” value is -0.136.

With ACAGTGAC, the “PBM E-score” value is 0.0575.

For the sequence CATCGGCG, the “PBM E-score” value was -0.324.

As for TTCGCCAA, the “PBM E-score” value was -0.118.

On to CTGGTACC, for which the “PBM E-score” value was -0.0972.

On to CACAAGAC, for which the “PBM E-score” value is -0.0417.

As for AACAGGCT, the “PBM E-score” value worked out at 0.305.

CATATCCA: the “PBM E-score” value is -0.0891.

Consider CTGTCCGA, for which the “PBM E-score” value was determined as 0.0291.

As to CAAATCCC, the “PBM E-score” value is -0.263.

Regarding CCTGTGGC, the “PBM E-score” value is -0.0178.

Regarding AAGCCTGG, the “PBM E-score” value is -0.078.

Take ATGGATCA: the “PBM E-score” value was -0.178.

With TCGCTAGA, the “PBM E-score” value is -0.251.

Regarding TGGCTTAA, the “PBM E-score” value was -0.0163.

On to AAGGTTCA, for which the “PBM E-score” value worked out at 0.0949.

For CAGAACAC, the “PBM E-score” value came to 0.0888.

As for TAACTCTA, the “PBM E-score” value was -0.185.

Consider GCGCTAGA, for which the “PBM E-score” value was determined as 0.0173.

For the sequence TTGGCCAA, the “PBM E-score” value is -0.323.

Turning to AGGCCGAC, the “PBM E-score” value was -0.381.

With AGCACAGC, the “PBM E-score” value is -0.0987.

Consider AAGAGTAT, for which the “PBM E-score” value is -0.0506.

Turning to AGCTGTGG, the “PBM E-score” value is -0.23.

In the case of CCCTAGAC, the “PBM E-score” value is -0.243.

In the case of AGTCCCTG, the “PBM E-score” value is -0.261.

On to AATGTAGG, for which the “PBM E-score” value was determined as 0.191.

On to CTGTTTGA, for which the “PBM E-score” value worked out at 0.0397.

CGCTGTTC: the “PBM E-score” value is 0.067.

With GACTTCGC, the “PBM E-score” value is -0.117.

With AGGCTACG, the “PBM E-score” value was 0.198.

Turning to AGTTTTAA, the “PBM E-score” value amounted to 0.109.

Consider GCTCCCTA, for which the “PBM E-score” value is -0.148.

Consider CCTAAACG, for which the “PBM E-score” value is 0.197.

Take GCTCGGAA: the “PBM E-score” value is -0.076.

Take GTAAAAAC: the “PBM E-score” value is 0.295.

Consider GCGCGAAA, for which the “PBM E-score” value stood at 0.097.

Turning to ACCGAACG, the “PBM E-score” value is -0.104.

In the case of GGAATGCA, the “PBM E-score” value was -0.0874.

For the sequence ACCGAGCA, the “PBM E-score” value was -0.193.

With ACTCGCCA, the “PBM E-score” value amounted to 0.0197.

ATCACCGC: the “PBM E-score” value is -0.045.

As to AGAGACTG, the “PBM E-score” value is -0.328.

With AGTTAGAT, the “PBM E-score” value was determined as 0.0673.

For GTTTATCA, the “PBM E-score” value stood at 0.0384.

As to ACGAGTTG, the “PBM E-score” value stood at 0.0334.

As to ACGCGTTA, the “PBM E-score” value amounted to 0.322.

As for TAGCAGGA, the “PBM E-score” value was 0.0679.

On to AAGTTCTG, for which the “PBM E-score” value was -0.0632.

For CAGAGACC, the “PBM E-score” value was -0.247.

On to AATAGAAG, for which the “PBM E-score” value is 0.0367.

ATTCTGCC: the “PBM E-score” value is -0.235.

For the sequence GGGCGAAA, the “PBM E-score” value was -0.09.

Regarding GGTTAGAC, the “PBM E-score” value is -0.0901.
